About 800 (1.6%) of roughly 50,000 compounds showed an effect of 50% or more. The list shows a part of the results.
target: Bcl-2-like protein 10 (Homo sapiens) (UniProt Q9HD36); experiment: TR3 peptide-Bcl-B binding displacers, biochemical primary FP assay, phenotype converters (AID 1240); conditions: GST-Bcl-B / FITC-TR3 peptide fluorescence polarization; stronger effect = higher value; compound at 3.75 mg/L;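 note: 0% = Bcl-B with tracer peptide and DMSO and 100% = tracer peptide lacking Bcl-B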
Chain of UniProt Q9HD36 (Q9HD36 whole entry, looked up): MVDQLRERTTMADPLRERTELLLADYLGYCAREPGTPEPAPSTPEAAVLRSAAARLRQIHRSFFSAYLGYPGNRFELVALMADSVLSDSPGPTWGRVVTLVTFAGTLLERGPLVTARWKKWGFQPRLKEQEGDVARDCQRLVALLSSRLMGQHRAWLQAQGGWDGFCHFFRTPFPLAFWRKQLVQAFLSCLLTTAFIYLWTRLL

Structure (SMILES) | displacement
O/N=C(/CSc1nc2ccccc2s1)c1ccccc1 | -4.5%
O=C(Oc1nn(-c2ccccc2)cc1C(=O)c1ccccc1)c1ccccc1 | 12.9%
CCOc1ccccc1N(CC(=O)Nc1ccc(C)c(C)c1)S(=O)(=O)c1ccccc1 | 0.4%
CC(C)OC(=O)c1cc2nc(-c3cccs3)cc(C(F)(F)F)n2n1 | 14.1%
COc1ccc(OC)c(Cn2c(O)c(/C=C3\C=CC=N3)c(=O)[nH]c2=O)c1 | 18.1%
N#CSC(C#N)Cc1cccc([N+](=O)[O-])c1 (centres undefined) | 1.6%
C=CCOC(=O)C1=C(C)NC2=C(C(=O)CCC2)C1c1ccccc1Cl (centres undefined) | 3.7%
CC1=NN(c2nc(-c3ccc(Br)cc3)cs2)C(=O)C1C (centres undefined) | -15.3%
CCc1ccc(NC(=O)CSc2nc3ccc(N)cc3s2)cc1 | 1.9%
O=C1/C(=C\c2ccco2)SC(=S)N1Cc1ccccc1 | 39.3%
CCn1c(NC(=O)c2ccc(Cl)cc2)nc2ccccc21 | 11.9%
CN(C)c1ccc(/C=C(\NC(=O)c2ccccc2)C(=O)Nc2ccc(Cl)cc2)cc1 | -4.5%
O=P(c1ccccc1)(c1ccccc1)C(O)c1ccco1 (centres undefined) | -0.1%
Cc1cc(Cl)ccc1NC(=O)CN(c1cccc([N+](=O)[O-])c1)S(=O)(=O)c1ccccc1 | 5%
Cc1ccc(NCC(=O)N/N=C\c2ccc(OC(=O)c3ccccc3Cl)cc2)cc1 | -15%
COc1cc(/C=C2\C(=O)NN(c3ccccc3)C2=O)cc(OC)c1OC | -6.6%
O=S(=O)(Nc1ccc(Cl)cn1)c1ccc(Cl)cc1 | -15.6%
O=P(CCNCc1ccco1)(c1ccccc1)c1ccccc1 | -3.3%
O=C(CCCOc1ccc(Cl)cc1Cl)Nc1ccc2c(c1)COC2=O | -11.3%
COc1ccc(C(=O)/C=C/c2cccc(OC)c2)cc1 | 7.5%
COc1ccc(C(=O)Nc2ccccc2)cc1NC(=O)c1ccccc1C | 0%
CCc1ccc(-c2csc(N)n2)cc1 | -3.2%

Structure (SMILES) | displacement
COc1cc(C(=O)N2CCN(C3CCCCCC3)CC2)cc(OC)c1OC | -1.6%
O=C(c1cc(F)c(F)cc1Cl)N1CCCC1 | 0%
CC(=O)CC(=O)Nc1ccc(Cl)c(C(F)(F)F)c1 | 14.3%
COc1ccccc1/C=C/C=N/NC(=O)c1cc(C)[nH]n1 | 2.8%
O=C(/C=C/c1cccs1)c1c(-c2ccccc2)c2cc(Cl)ccc2[nH]c1=O | 15.4%
CC1CCc2c(sc(NC(=O)c3ccccc3Cl)c2C(=O)NCc2ccco2)C1 (centres undefined) | -13.2%
COC(=O)C1=C(C)N(c2ccccc2F)C(=O)/C1=C\c1ccccc1F | 112%
COc1cccc(OC)c1C(=O)NCC1CCCO1 (centres undefined) | -17.2%
CCc1nccn1S(=O)(=O)c1cc(Cl)ccc1OC | -5.5%
O=C1CC(N2CCN(c3cccc(Cl)c3)CC2)C(=O)N1c1cccc(Cl)c1 (centres undefined) | 2.7%
COc1ccc(Cl)cc1C(=O)N1CCN(c2ccc([N+](=O)[O-])cc2)CC1 | 7.5%
COc1cccc(NC(=O)c2cc3ccccc3cc2OC)c1 | 10.2%
CN(C1CCS(=O)(=O)C1)S(=O)c1ccc2ccccc2c1 (centres undefined) | -5.8%
Cc1ccc(NC(=O)/C=C/c2ccco2)c([N+](=O)[O-])c1 | 1.7%
COc1cc(C(=O)Nc2cc(-c3nc4ncccc4o3)ccc2C)cc(OC)c1OC | -2.2%
COc1ccc(N2C(=O)NC(=O)/C(=C/c3cccc(OCc4ccccc4F)c3)C2=O)cc1 | 0.1%
Cc1ccc(C(=O)N/C(=C/c2ccc(Br)cc2)C(=O)N2CCOCC2)cc1 | -2.1%
CN1CCN(CCOCCOc2ccc(Br)cc2)CC1 | -14.9%
O=C(/C=C/c1ccc([N+](=O)[O-])cc1)Nc1cccc(C(F)(F)F)c1 | 2.7%
COC(=O)C1=C(C)NC(=O)N(C(C)=O)C1c1cccs1 (centres undefined) | 10.3%
CC(C)(C)NC(=O)C(=O)N/N=C/c1ccc(Cl)cc1Cl | 6.8%
COCCNC(=S)Nc1ccc(Cl)cc1Cl | -14.8%

Structure (SMILES) | displacement
O=C(Cc1ccc(Cl)cc1)Nc1ccc(-c2nc3ccccc3o2)cc1 | 13.4%
CN(C)c1cccc(C(=O)NCc2ccc(S(N)(=O)=O)cc2)c1 | 1.7%
CCOc1cc(C2Nc3cc(C)c(C)cc3NC3=C2C(=O)CC(C)(C)C3)ccc1OC(=O)C1CC1 (centres undefined) | -9.2%
CN(C)c1cccc(C(=O)N2CCc3ccccc3C2)c1 | 9.1%
Cc1c(NC(=O)c2ccc(S(=O)(=O)N3CC(C)OC(C)C3)cc2)c(=O)n(-c2ccccc2)n1C (centres undefined) | -14.2%
Cc1cc(C)cc(CSCC(=O)Nc2ccc(C(C)C)cc2)c1 | -3.1%
CC(N=C1NS(=O)(=O)c2ccccc21)c1ccccc1 (centres undefined) | 9.5%
O=C(CSc1nsc(SCC(=O)Nc2ccc(F)cc2)n1)Nc1ccc(F)cc1 | -8.7%
Cc1ccc(C2CC(C(F)(F)F)n3nc(C(=O)NC(C)C)cc3N2)cc1 (centres undefined) | 5.1%
CCOc1ccc(N2C(=O)/C(=C/c3ccc(-c4ccccc4C(=O)O)o3)C(=O)NC2=S)cc1 | 6.8%
CCOc1ccc(C(=O)NCCNc2ccc([N+](=O)[O-])cc2)cc1Cl | -5%
N#Cc1c(NCc2ccccc2)ncc2c1Nc1ccccc1C2 | 112%
Cc1cc(C)c(NC(=O)COc2ccccc2[N+](=O)[O-])c(C)c1 | -9.6%
O=C(CSc1nc2ccccc2[nH]1)Nc1nc2c(s1)CCCC2 | -5.1%
CCOC(=O)c1ccc(NC(=O)CN(c2ccccc2)S(=O)(=O)c2ccccc2[N+](=O)[O-])cc1 | 1.2%
CN(C)c1ccc(/C=C2\C(=O)C(=O)c3ccccc32)cc1Br | -5.7%
COc1cc(C=O)ccc1Oc1ccc([N+](=O)[O-])cn1 | -2.9%
CC(C)C(NS(=O)(=O)c1ccc(Cl)cc1)C(=O)NN (centres undefined) | 5.8%
COc1ccc(NC(=O)c2cnn3c(C(F)(F)F)cc(-c4ccco4)nc23)cc1OC | 4.5%
Cc1c(NS(=O)(=O)c2cccs2)c(=O)n(-c2ccccc2)n1C | -0.2%
O=C(NCc1ccncc1)c1ccc(C#CC2(O)CCCCC2)cc1 | -3%
CC(=O)Nc1ccc(NC(NC(=O)c2cccc(I)c2)C(Cl)(Cl)Cl)cc1 (centres undefined) | 7.6%

Structure (SMILES) | displacement
O=C(O)C1C2CCC(O2)C1C(=O)Nc1cccc(F)c1 (centres undefined) | -6.7%
CC(=O)Nc1ccc(S(=O)(=O)n2c(C)cc(C)nc2=O)cc1 | 5.8%
Cc1cc(NC(=O)c2ccccc2)n(-c2ccccc2)n1 | -63.1%
COc1ccc(NC(=O)C2CC3CCC2C3)cc1OC (centres undefined) | 11.8%
COc1ccc(C(=O)Nc2cccc(S(N)(=O)=O)c2)cc1 | -5.8%
COC(=O)CN(c1ccc(Cl)cc1Cl)S(=O)(=O)c1ccc(C)cc1 | -7%
O=[N+]([O-])c1ccc(Oc2ccc(S(=O)(=O)N3CCN(c4ccccc4)CC3)cc2)cc1 | -6.6%
COc1ccc(Br)cc1/C=C1\SC(N2CCOCC2)=NC1=O | 8.8%
Cc1nc2ccc(NC(=S)N3CCC(C)CC3)cc2nc1C | -12%
CC(C)c1ccc(NC(=O)COc2ccc3ccccc3c2)cc1 | 0.2%
CCOC(=O)COc1ccc2c(C(F)(F)F)cc(=O)oc2c1 | -3.3%
COC(=O)C1=C(C)N(C)C(C)=C(C(=O)OC)C1c1cccc(Cl)c1 | -13.8%
O=C(N/N=C/c1ccc(OC2CSC2)cc1)c1ccccc1 | -3.6%
CC(NC(=O)CN(c1ccc(Cl)cc1)S(C)(=O)=O)c1ccccc1 (centres undefined) | 8.8%
CCOC(=O)C1=C(C)N=c2s/c(=C\c3cccs3)c(=O)n2C1c1ccc(OC)cc1 (centres undefined) | 6.6%
COC(=O)CN1C(=O)/C(=C\c2ccc([N+](=O)[O-])cc2)SC1=S | 5%
COc1cccc(NC(=O)COc2cc(C)ccc2C(C)C)c1 | 3%
CCSC1(SCC)N=C(N)C2(C#N)C(c3ccccc3)NC3=C(CCCC3)C12C#N (centres undefined) | -19.7%
Cc1cc(C=C(C#N)C#N)c(C)n1-c1cccc(Cl)c1 | 8%
CSc1nc(-c2ccccc2)nc(N2CCN(C)CC2)c1C(C)=O | -17%
COC(=O)C(CC(C)C)NC(=O)CSc1nnc(C)c(=O)[nH]1 (centres undefined) | -3.9%
O=C(c1ccc2c(c1)OCO2)N1CCC(Cc2ccccc2)CC1 | 3%

Structure (SMILES) | displacement
Cc1cccc(C(C)C)c1-n1nnnc1-c1ccccc1 | 4.4%
Cc1ccc(C)c(NC(=O)C2CC(=O)N(c3ccc(Cl)cc3)C2)c1 (centres undefined) | 11.9%
O=C1CC(c2ccc(Cl)cc2)CC2=C1C(c1cccc([N+](=O)[O-])c1)Nc1ccccc1N2 (centres undefined) | -3.5%
CC(C)Oc1ccccc1NC(=O)c1cccs1 | 3.4%
O=P(Cc1ccncc1)(c1ccccc1)c1ccccc1 | 5.8%
O=C(NCc1ccccn1)C12CC3CC(CC(C3)C1)C2 | -4.4%
COC(=O)c1ccc(-c2ccc(/C=C3/SC(=S)N(c4ccccc4)C3=O)o2)cc1 | 12.6%
C=CCC1S/C(=N\N=C\c2ccccc2)NC1=O (centres undefined) | 14.6%
CCCCCCCc1ccc(-c2ccc(O)cc2)nc1 | 0.7%
COC(=O)C1=C(C)N(c2ccccc2F)C(=O)/C1=C\c1cccc(OC)c1 | 10.1%
Cc1cc(C)c(NC(=O)c2ccccc2Br)c(C)c1 | 20.4%
CC1=C/C(=N\OC2=C(O/N=C3/C=CC(=O)C(C)=C3)C(=O)c3ccccc3C2=O)C=CC1=O | 17.3%
CC(C)(C)c1ccc(C(=O)Nc2cc(C(N)=O)c(Cl)cc2Cl)cc1 | 9%
CCOc1ccc(-c2cc(C)n3nc(C(=O)O)cc3n2)cc1 | -12.3%
Cc1ccc(-n2nc3cc(C)c(NC(=O)/C=C/c4cccc([N+](=O)[O-])c4)cc3n2)cc1 | -11.2%
CC(CO)(CO)N=Cc1c(O)n(-c2ccccc2)c(=S)[nH]c1=O | -6.6%
CCn1c2ccccc2c2cc(/C=N/NC(=O)c3cccc([N+](=O)[O-])c3)ccc21 | 6.5%
CC(=O)Nc1ccc(S(=O)(=O)NN2C(=O)c3ccccc3C2=O)cc1 | 11.4%
CCN(CC)C(=S)Nc1c(C)n(C)n(-c2ccccc2)c1=O | -0.2%
CC(C)CN1C(=O)c2ccc(C(=O)Nc3ccc(Br)cc3C(=O)O)cc2C1=O | -12.5%
Cc1ccc2c(c1)C1C=CCC1C(c1ccccc1[N+](=O)[O-])N2 (centres undefined) | 6.9%

— PubChem BioAssay AID1240 (Sanford-Burnham Center for Chemical Genomics, 2008)
